# Data from article PMC6919601, “Identification of Plasmodium dipeptidyl aminopeptidase allosteric inhibitors by high throughput screening” (PLoS ONE, 2019).
# Values joined by “and” are separate entries in the source; they are usually repeats but may differ in a detail not shown here. Equal entries are not always repeated. The whole screen tested about 110,000 compounds, of which about 230 (0.21%) showed an effect of 50% or more. Some of the results follow.
# Molecular target: DPAP1 (Plasmodium falciparum, UniProt Q8IIJ9)
# Sequence (Q8IIJ9 whole entry, looked up): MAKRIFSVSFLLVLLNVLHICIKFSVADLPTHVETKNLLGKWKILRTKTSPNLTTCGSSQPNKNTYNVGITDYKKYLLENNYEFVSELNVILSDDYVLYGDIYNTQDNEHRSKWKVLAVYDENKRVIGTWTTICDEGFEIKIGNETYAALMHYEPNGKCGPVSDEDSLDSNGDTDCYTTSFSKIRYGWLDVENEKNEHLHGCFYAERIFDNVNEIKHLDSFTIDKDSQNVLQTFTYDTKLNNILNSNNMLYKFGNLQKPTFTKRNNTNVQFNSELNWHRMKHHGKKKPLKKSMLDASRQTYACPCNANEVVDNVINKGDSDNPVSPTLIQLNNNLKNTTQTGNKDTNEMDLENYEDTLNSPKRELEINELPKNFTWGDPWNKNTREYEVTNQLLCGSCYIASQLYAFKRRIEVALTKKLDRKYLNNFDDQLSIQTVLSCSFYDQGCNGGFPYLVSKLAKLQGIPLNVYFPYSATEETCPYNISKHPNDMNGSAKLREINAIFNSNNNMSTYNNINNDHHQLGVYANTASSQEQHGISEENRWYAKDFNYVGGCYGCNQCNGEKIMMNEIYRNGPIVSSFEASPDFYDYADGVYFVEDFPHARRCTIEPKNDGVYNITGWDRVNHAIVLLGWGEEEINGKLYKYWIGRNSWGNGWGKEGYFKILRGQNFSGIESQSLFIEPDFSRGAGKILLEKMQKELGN
# Test: primary screen, percent inhibition; read by cleavage of a fluorogenic dipeptide substrate; higher = more effect of the substance
# Set-up: species or system P. falciparum D10 trophozoite lysates; single well
# 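Further: 30 min substrate incubation versus DMSO and 10 µM JCP410 controls.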
row,Structure (SMILES),% Inhibition @ 10 uM
1,CC(NC(=O)C1C2CCC(C2)C1C(=O)O)C1CC2CCC1C2 (stereo not drawn),3.44%
2,O=C(C1Sc2nnc(-c3ccccc3)n2NC1c1ccccc1)N1CCCC1 (stereo not drawn),1.72%
3,CNC(=O)C(=O)NCCc1ccc(Cl)cc1,-11.4%
4,Cc1cc(Cl)ccc1OC(C)C(=O)NCc1cccnc1 (stereo not drawn),-11.2%
5,COc1ccccc1NC(=O)/C=C1/c2ccccc2CC(C)(C)N1C,0.345%
6,Cc1cc2c(/C=C/C(=O)O)nc(-c3ccccc3)nc2s1,5.93%
7,Cc1nn2c(=O)/c(=C/c3cn(-c4ccccc4)nc3-c3ccc4c(c3)CC(C)O4)sc2nc1=O (stereo not drawn),-1.92%
8,CCOC(=O)c1c(NC(=O)c2onc(C)c2Cl)sc2c1CCCC2,-0.0115%
9,CCCC(=O)c1ccc(C(=O)O)s1,-2.7%
10,COc1ccc(CCNC(=O)Cn2nnc(C(=O)NCc3ccc(F)cc3)c2N)cc1OC,-0.00718%
11,CNC(=O)/C(=C/c1ccco1)NC(=O)c1ccc(C)cc1,-3.92%
12,O=C(CC1Sc2ccccc2NC1=O)Nc1ccccc1 (stereo not drawn),4.63%
13,Fc1ccc(-c2csc(NCc3ccco3)n2)cc1,1.74%
14,COc1cc2c(cc1OC)C(c1cc(Cl)cc(Cl)c1O)NCC2 (stereo not drawn),-5.28%
15,CCCCNC(=O)CCc1c(C)nc2nc(-c3cc(OC)cc(OC)c3)nn2c1C,1.26%
16,CCCOc1ccccc1C1C(C#N)=C(N)Oc2[nH]nc(-c3ccc(OC)cc3)c21 (stereo not drawn),-2.88%
17,COC(=O)c1[nH]c2c(c1C)C(=O)CCC2,3.04%
18,Cc1nnc(C)n1/N=C\c1cccc(OCc2ccccc2)c1,-7.9%
19,O=C(Nc1ccccc1)C(C(=O)Nc1ccccc1)C12CC3CC(CC(C3)C1)C2,-2.75%
20,COc1ccccc1N1CCN(C(=O)CN(Cc2ccccc2)S(C)(=O)=O)CC1,1.59%
21,Cc1cc(=O)oc2c(C)c3occ(-c4ccc(F)cc4)c3cc12,-1.15%
22,Cc1ccc(C(=O)Nc2ccc(S(=O)(=O)N3CCCCCC3)cc2)cc1,-4.82%
23,CC(C)(C)c1cc(C(=O)NCCN2CCCC2)cc(C(C)(C)C)c1,-0.0619%
24,COc1ccc(C2CC(c3ccc(Cl)cc3)=NN2c2ccccc2F)c(OC)c1 (stereo not drawn),-0.999%
25,O=C(NCc1ccccc1Cl)C(NS(=O)(=O)c1cccs1)c1ccccc1 (stereo not drawn),-1.28%
26,CCc1ccc(C2=CC(c3ccccc3Cl)n3ncnc3N2)cc1 (stereo not drawn),0.0842%

row,Structure (SMILES),% Inhibition @ 10 uM
1,Cc1cc(C)c(-n2cccc2CNC2CCCCC2)c(C)c1,1.29% and -2.42%
2,COC(=O)c1c(N2C(N)=C(C#N)C(c3ccccc3)C3=C2CCCC3=O)sc2c1CCCC2 (stereo not drawn),1.13%
3,COc1ccc(C(C)=O)cc1N1C(=O)C2C3C=CC(C3=C(C)C)C2C1=O (stereo not drawn),2.38%
4,COc1cc2c(C(=O)NCCN3CCOCC3)cn(CC(C)C)c(=O)c2cc1OC,0.505%
5,CCOc1ccc(-c2nn3c(-c4ccccc4)nnc3s2)cc1,0.0539%
6,O=C(C1=C(O)C(=O)N(CCOCCO)C1c1ccc(Cl)cc1Cl)c1ccccc1 (stereo not drawn),-2.03%
7,CCCNC(=O)c1cnn(-c2ccccc2)c1C1CCNCC1,6.57%
8,N#Cc1c(NC(=O)C2CC2)sc2c1CCCC2,5.58%
9,C=CCn1c(CNC(=O)c2ccc(F)cc2)nc2ccccc21,-0.972%
10,CCOC(=O)N1CCC(NC2CCCCC2C)CC1 (stereo not drawn),3.48%
11,OCCNc1nc(O)c2c(n1)-c1ccccc1CC21CCCC1,-3.77%
12,CCSCCOC(=O)C1=C(C)NC(=O)CC1c1c(F)cccc1Cl (stereo not drawn),1.97%
13,CCc1nn(CC(=O)N(C)Cc2ccccc2)c(=O)c2cc3occc3n12,-5.63%
14,CCOC(=O)c1c(NC(=O)CO/N=C/c2ccc(OC)cc2)sc2c1CCCC2,1.97%
15,CCCN1CCC(N2CCCC(C(=O)N(CC)CC)C2)CC1 (stereo not drawn),-0.0908%
16,Cn1cc(CCCC(=O)N2CCCC2)c2ccccc21,3.17%
17,COc1cccc(C2C(C(=O)c3ccc4c(c3)OCCO4)=C(O)C(=O)N2CC2CCCO2)c1 (stereo not drawn),-0.0619%
18,Cc1ccccc1OCC(=O)Nc1ccc2c(c1)OCO2,2.5%
19,N#Cc1nc(/C=C/c2ccc(F)cc2)oc1NCc1ccccc1,-4.39%
20,C=CCNc1nc(N)c(C(=O)C23CC4CC(CC(C4)C2)C3)s1,0.726%
21,CC(C(=O)O)n1nc(-c2ccccc2)c2cc(Cl)ccc21 (stereo not drawn),3.24%
22,COC(=O)c1sc(NC(=O)COc2ccc(C)cc2)nc1C,-5.63%
23,CCN1CCN(CC(O)COc2ccc(C)cc2C)CC1 (stereo not drawn),0.823%
24,CCOc1ccccc1C1C(C#N)=C(N)Nc2onc(-c3ccccc3)c21 (stereo not drawn),0.317%
25,COc1ccccc1-c1c(C)nn2c(O)cc(Cc3ccccc3)nc12,-2.83%
26,CCCC1CCC(C2=N/C(=C/c3cc(OC)c(OC)c(OC)c3)C(=O)O2)CC1 (stereo not drawn),1.81%

row,Structure (SMILES),% Inhibition @ 10 uM
1,CCOc1ccc(Cc2onc3c2C(=O)CC(C)(C)C3)cc1OCC,-2.19%
2,Cc1[nH]nc2c1C(c1ccc3c(c1)OCO3)C(C#N)=C(N)O2 (stereo not drawn),2.38%
3,CN(C)CC(=O)N1CCc2ccccc2C(c2ccccc2)C1 (stereo not drawn),-3.06%
4,c1ccc2c(OCc3nc4c5c6c(sc5ncn4n3)CCCC6)cccc2c1,-3.28%
5,CCOCCn1cnc2sc(C(=O)N3CCC4(CC3)OCCO4)c(C)c2c1=O,1.2%
6,CCc1ccc(NC(=O)c2ccc(Cl)c([N+](=O)[O-])c2)cc1,1.91%
7,CON(C)c1nc(OCCNC(=O)COc2ccc(Cl)cc2C)nc(N(C)C)n1,-3.02%
8,COc1ccc(OC)c(CNC(=O)c2cc3cc4cc(OC)ccc4nc3s2)c1,4.1%
9,O=C(NC1(C(F)(F)F)C(=O)Nc2c1c(=O)[nH]c(=O)n2-c1ccccc1F)c1ccncc1 (stereo not drawn),-4.26%
10,Cc1cnn(-c2cc(Oc3ccccc3)ncn2)c1,-3.19%
11,Cc1ccc2c(c1)c1c(n2CCC#N)C(=O)CCC1,-3.65%
12,NC(=O)C1CCN(c2cnnc3c(Cl)cccc23)CC1,-1.42%
13,CCOC(=O)N1CCN(C(=O)C2CC(c3ccc(F)cc3)=NO2)CC1 (stereo not drawn),2.85%
14,Cc1nn(-c2ccccc2)c(C)c1/C=N/n1cnnc1S,21.5%
15,CC(C)C[C@H](NC(=O)c1ccc(-c2csc(Nc3ccncc3)n2)cc1)C(=O)NCCN1CCOCC1,-1.41%
16,Cc1c(O)nc(Nc2nc(C)c3ccccc3n2)nc1O,2.3%
17,COc1cccc(C2=N/C(=C\c3ccc(Cl)cc3Cl)C(=O)O2)c1,-5.03%
18,Brc1cc2c(cc1CN1CCc3ccccc3C1)OCO2,5.45%
19,Cc1ccc2c(CNCc3ccccc3C)c(C(=O)O)n(Cc3ccccc3F)c2c1,6.57%
20,O=C(c1ccc(S(=O)(=O)N2CCOCC2)cc1)N1CCN(Cc2ccc3c(c2)OCO3)CC1,1.02%
21,CCOc1ccc2sc(/C(C)=N/CCc3ccccc3)c(O)c2c1,-3.9%
22,Cc1ccc2[nH]cc(C3CCCCC3=O)c2c1 (stereo not drawn),-7.16%
23,CC1CCCN(C(=O)c2cccc(Cl)c2)C1 (stereo not drawn),-5.2%
24,O=C(NCCCN1CCOCC1)c1cc(-c2ccc3c(c2)OCO3)nc2ccccc12,2.32%
25,Clc1nc(-c2ccccc2)cc(-c2cnc(N3CCCCC3)nc2N2CCCCC2)n1,-1.5%
26,Cc1cc(C)c2nc(N3CCCC(C(=O)NCCCN4CCOCC4)C3)sc2c1 (stereo not drawn),-3.35%

row,Structure (SMILES),% Inhibition @ 10 uM
1,CN(C)CCCN1Cc2ccccc2Sc2ccccc21,-2.29%
2,O=C(NCc1ccc2c(c1)OCO2)c1ccc2c(Cl)c3c(nc2c1)CCCC3,2.23%
3,COc1cccc(C2CC(=O)Nc3c2c(O)nc2ncnn32)c1 (stereo not drawn),-0.222%
4,CCOc1ccc(/C=C2/SC(=O)N(C(C)CC)C2=O)cc1OC (stereo not drawn),-1.44%
5,CCN1CCN(C2=NC(=O)/C(=C/c3ccc(OC)cc3OC)S2)CC1,-3.41%
6,Cc1cccc(-n2c(C)nc3sccc3c2=O)c1,-5.13%
7,CCOc1ccc(C2N3CCCN23)cc1 (stereo not drawn),-4.74%
8,COc1ccc(C2Nc3ccccc3C(=O)N2Cc2ccccc2)cc1 (stereo not drawn),2.01%
9,CC(C)c1ccccc1OCC(=O)Nc1ccccc1C(N)=O,-3.26%
10,Cc1ccc(C(=O)Nc2ccc(Br)cc2)cc1S(=O)(=O)N1CCCCCC1,-1.96%
11,Cc1ccc(S(=O)(=O)N(CC(=O)Nc2ccc3c(c2)OCO3)C2CCCCC2)cc1,-6.58%
12,CCN(CC)CP1(=O)OCC(C)(C)CO1,1.29%
13,COCCNC(=O)CCCn1nc(C)c2c(C)n(-c3ccc(C)cc3)nc2c1=O,-1.21%
14,CCN(CC)C(=O)N1CCN(c2ccc(Nc3ccnc4cc5ccccc5cc34)cc2)CC1,10.7%
15,COc1ccc(CC(=O)Nc2ccc3c(c2)CCC3)cc1OC,4.49%
16,COc1ccc(CNC(=O)Cn2ncc3c4ccccc4n(Cc4ccc(F)cc4)c3c2=O)cc1,-3.35%
17,COc1cc(CNC2CCCc3ccccc32)cc(OC)c1OC (stereo not drawn),22.4%
18,Clc1cccc2c(CN3CCOCC3)csc12,-2.97%
19,Cc1nnc(SCC(=O)NCCc2ccco2)c2nn(-c3ccc(Cl)cc3)c(C)c12,6.6%
20,Cc1ccccc1CN1CC(C)OC(C)C1 (stereo not drawn),-0.636%
21,O=C(COc1ccc([N+](=O)[O-])cc1)Oc1ccc(Br)cc1,1.33%
22,O=C(NCc1cc(Br)cc(C(=O)O)c1O)c1ccccc1,-0.415%
23,c1ccc2[nH]c(C3CCNCC3)nc2c1,-4.69%
24,CCOC(=O)c1c(C)[nH]c(C)c1S(=O)(=O)N1CCC(C(=O)NCc2ccccn2)CC1,-0.166%
